This is one part of the list. Single values are uncertain, as repeats are few or missing.
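Further: cell number obtained by counting DAPI-stained nuclei in high-throughput microscope images with image analysis software, screen run in 1,536-well plates.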

For the first assay, the system named is A2058. Description: cell count relative to DMSO control; melanoma cells; higher = more viable cells. To be noted: library dose: low library concentration; 72 h.
In turn, `NC(=O)Nc1cc(-c2cccc(F)c2)sc1C(=O)N[C@H]1CCCNC1` + COc1ccc(-c2ccc3c(N4CCOCC4)nc(N4C[C@@H](C)O[C@@H](C)C4)nc3n2)cc1CO [KU0063794] (first compound 0.02 µM, partner dose 0.02 µM) came in with a cell count of 103%. `C[C@]1(c2nc3c(C(N)=O)cccc3[nH]2)CCCN1` [Veliparib] + COc1cc2ncnc(Nc3ccc(Oc4ccccc4)cc3)c2cc1OC [SrcI1] (first compound 1.4 µM, partner dose 2 µM) came in with a cell count of 90.4%. The same measure, in the same setting: under `OCCn1cc(-c2cnc3nnn(Cc4ccc5ncccc5c4)c3n2)cn1` + COc1ccc2c(c1)CCC1C2CCC2(C)C(NCCCCCCN3C(=O)C=CC3=O)CCC12 [U73122] (first compound 1 µM, partner dose 0.4 µM) stands 97%. As for `NCC(=O)Nc1ccc(-n2nc(C(F)(F)F)cc2-c2ccc3c(ccc4ccccc43)c2)cc1` + CN(NC(=O)CC(=O)NN(C)C(=S)c1ccccc1)C(=S)c1ccccc1 [STA4783] (first compound 1 µM, partner dose 0.006 µM), the cell count worked out at 82.5%.

For the compound `Cc1nc(Nc2ncc(C(=O)Nc3c(C)cccc3Cl)s2)cc(N2CCN(CCO)CC2)n1` [dasatanib] + Oc1nc(-c2ccc(C(F)(F)F)cc2)nc2c1CSCC2 [XAV939] (first compound 0.004 µM, partner dose 2 µM), the cell count was found to be 74.8%.

As to `OCCn1cc(-c2cnc3nnn(Cc4ccc5ncccc5c4)c3n2)cn1` + O=C(O)C(=O)Nc1sc2c(c1C(=O)O)CCNC2 [TCS401] (first compound 1 µM, partner dose 1.66667 µM), the cell count is 88.3%.

The compound `C[C@]1(c2nc3c(C(N)=O)cccc3[nH]2)CCCN1` [Veliparib] + COc1ccc2c(c1)CCC1C2CCC2(C)C(NCCCCCCN3C(=O)C=CC3=O)CCC12 [U73122] (first compound 1.4 µM, partner dose 0.4 µM) registered a cell count of 89.7%.

`NCC(=O)Nc1ccc(-n2nc(C(F)(F)F)cc2-c2ccc3c(ccc4ccccc43)c2)cc1` + O=C(Nc1ccccc1)c1cc([N+](=O)[O-])ccc1Cl [GW9662] (first compound 1 µM, partner dose 2 µM): the cell count is 114%. On to `OCCn1cc(-c2cnc3nnn(Cc4ccc5ncccc5c4)c3n2)cn1` + CN(NC(=O)CC(=O)NN(C)C(=S)c1ccccc1)C(=S)c1ccccc1 [STA4783] (first compound 1 µM, partner dose 0.006 µM), for which the cell count amounted to 85.9%.

`C=CCn1c(=O)c2cnc(Nc3ccc(N4CCN(C)CC4)cc3)nc2n1-c1cccc(C(C)(C)O)n1` + O=C1NC(=O)/C(=C/c2ccc(-c3ccc(F)cc3O)o2)S1 [AS252424] (first compound 0.02 µM, partner dose 1 µM) registered a cell count of 102%.

Turning to `NC(=O)Nc1cc(-c2cccc(F)c2)sc1C(=O)N[C@H]1CCCNC1` + C[C@@H]1CCN(C(=O)CC#N)C[C@@H]1N(C)c1ncnc2[nH]ccc12 [CP690550] (first compound 0.02 µM, partner dose 1 µM), the cell count was 118%. As for `Cc1nc(Nc2ncc(C(=O)Nc3c(C)cccc3Cl)s2)cc(N2CCN(CCO)CC2)n1` [dasatanib] + O=C1NC(=O)/C(=C/c2ccc(-c3ccc(F)cc3O)o2)S1 [AS252424] (first compound 0.004 µM, partner dose 1 µM), the cell count was 102%. `NCC(=O)Nc1ccc(-n2nc(C(F)(F)F)cc2-c2ccc3c(ccc4ccccc43)c2)cc1` + Oc1nc(-c2ccc(C(F)(F)F)cc2)nc2c1CSCC2 [XAV939] (first compound 1 µM, partner dose 2 µM): the cell count amounted to 97.9%. Turning to `NCC(=O)Nc1ccc(-n2nc(C(F)(F)F)cc2-c2ccc3c(ccc4ccccc43)c2)cc1` + COc1ccc(COc2ccc(Cc3cnc(N)nc3N)cc2OC)cc1 [GW2580] (first compound 1 µM, partner dose 1 µM), the cell count amounted to 89.4%. Turning to `NCC(=O)Nc1ccc(-n2nc(C(F)(F)F)cc2-c2ccc3c(ccc4ccccc43)c2)cc1` + Cc1cc([N+](=O)[O-])ccc1NS(=O)(=O)c1cc(Cl)ccc1Cl [FH535] (first compound 1 µM, partner dose 1 µM), the cell count was 91.6%.

The subject of another assay is A375. The description is as above. To be noted: library dose: low library concentration; 72 h.
In turn, `C[C@]1(c2nc3c(C(N)=O)cccc3[nH]2)CCCN1` [Veliparib] + Oc1cc(-c2nc(-c3ccccc3)[nH]c2-c2ccncc2)ccc1Cl [L779450] (first compound 1.4 µM, partner dose 0.2 µM) displayed a cell count of 78.2%. In turn, `CN(C)S(=O)(=O)c1ccc2c(c1)/C(=C/c1cc3c([nH]1)CCCC3)C(=O)N2` + O=C(O)c1ccc(-c2c[nH]c3ncc(-c4ccccc4)cc23)cc1C1CCCC1 [GSK650394] (first compound 0.4 µM, partner dose 0.16 µM) returned a cell count of 131%.

For `NC(=O)Nc1cc(-c2cccc(F)c2)sc1C(=O)N[C@H]1CCCNC1` + Cc1cc(N2CCOCC2)cc2[nH]c(-c3c(NC[C@@H](O)c4cccc(Cl)c4)cc[nH]c3=O)nc12 [BMS536924] (first compound 0.02 µM, partner dose 0.2 µM), the cell count was 39.9%.

`C=CCn1c(=O)c2cnc(Nc3ccc(N4CCN(C)CC4)cc3)nc2n1-c1cccc(C(C)(C)O)n1` + CCN(CC)CCCCNc1ncc2cc(-c3cc(OC)cc(OC)c3)c(NC(=O)NC(C)(C)C)nc2n1 [PD173074] (first compound 0.02 µM, partner dose 0.1 µM) returned a cell count of 65.2%. Same read-out and setting: to `Cc1nc(Nc2ncc(C(=O)Nc3c(C)cccc3Cl)s2)cc(N2CCN(CCO)CC2)n1` [dasatanib] + O=S(=O)(c1ccccc1)N(CC(F)(F)F)c1ccc(C(O)(C(F)(F)F)C(F)(F)F)cc1 [T0901317] (first compound 0.004 µM, partner dose 1.4 µM) belongs 86.2%; to `OCCn1cc(-c2cnc3nnn(Cc4ccc5ncccc5c4)c3n2)cn1` + Cn1cc(/C=C2\C(=O)Nc3cccnc32)c2ccccc21 [GW441756] (first compound 1 µM, partner dose 0.4 µM), 85.2%. On the same count and under the same terms, to `NC(=O)Nc1cc(-c2cccc(F)c2)sc1C(=O)N[C@H]1CCCNC1` + O=C(O)C(=O)Nc1sc2c(c1C(=O)O)CCNC2 [TCS401] (first compound 0.02 µM, partner dose 1.66667 µM) belongs 47.7%; to `OCCn1cc(-c2cnc3nnn(Cc4ccc5ncccc5c4)c3n2)cn1` + CCCCCCCCCCCC1=C(O)C(=O)C=C(O)C1=O [Embelin] (first compound 1 µM, partner dose 1.2 µM), 109%.

With `Cc1nc(Nc2ncc(C(=O)Nc3c(C)cccc3Cl)s2)cc(N2CCN(CCO)CC2)n1` [dasatanib] + COC(=O)c1sccc1S(=O)(=O)Nc1ccc(Nc2ccccc2)cc1OC [GSK0660] (first compound 0.004 µM, partner dose 1 µM), the cell count turned out to be 89.2%. In turn, `C[C@]1(c2nc3c(C(N)=O)cccc3[nH]2)CCCN1` [Veliparib] + CCN(CC)CCCCNc1ncc2cc(-c3cc(OC)cc(OC)c3)c(NC(=O)NC(C)(C)C)nc2n1 [PD173074] (first compound 1.4 µM, partner dose 0.1 µM) yielded a cell count of 95.2%. `C=CCn1c(=O)c2cnc(Nc3ccc(N4CCN(C)CC4)cc3)nc2n1-c1cccc(C(C)(C)O)n1` + COC(=O)c1sccc1S(=O)(=O)Nc1ccc(Nc2ccccc2)cc1OC [GSK0660] (first compound 0.02 µM, partner dose 1 µM) came in with a cell count of 57.7%. Same read-out and setting: to `NC(=O)Nc1cc(-c2cccc(F)c2)sc1C(=O)N[C@H]1CCCNC1` + O=C(Nc1ccccc1)c1cc([N+](=O)[O-])ccc1Cl [GW9662] (first compound 0.02 µM, partner dose 2 µM) belongs 97.9%. `OCCn1cc(-c2cnc3nnn(Cc4ccc5ncccc5c4)c3n2)cn1` + Cn1cncc1[C@@](N)(c1ccc(Cl)cc1)c1ccc2c(c1)c(-c1cccc(Cl)c1)cc(=O)n2C [tipifarnib] (first compound 1 µM, partner dose 0.01 µM): the cell count amounted to 104%. Consider `CN(C)S(=O)(=O)c1ccc2c(c1)/C(=C/c1cc3c([nH]1)CCCC3)C(=O)N2` + O=C(Nc1ccccc1)c1cc([N+](=O)[O-])ccc1Cl [GW9662] (first compound 0.4 µM, partner dose 2 µM), for which the cell count was 109%. With `CN(C)S(=O)(=O)c1ccc2c(c1)/C(=C/c1cc3c([nH]1)CCCC3)C(=O)N2` + CCc1ccc(CCOc2ccc(CC3SC(=O)NC3=O)cc2)nc1 [pioglitazone] (first compound 0.4 µM, partner dose 2 µM), the cell count is 108%.

With `Cc1nc(Nc2ncc(C(=O)Nc3c(C)cccc3Cl)s2)cc(N2CCN(CCO)CC2)n1` [dasatanib] + Cc1cc([N+](=O)[O-])ccc1NS(=O)(=O)c1cc(Cl)ccc1Cl [FH535] (first compound 0.004 µM, partner dose 1 µM), the cell count is 69.7%. Still for that read-out and setting: to `OCCn1cc(-c2cnc3nnn(Cc4ccc5ncccc5c4)c3n2)cn1` + CN(C)S(=O)(=O)c1ccc2c(c1)/C(=C/c1cc3c([nH]1)CCCC3)C(=O)N2 [SU6656] (first compound 1 µM, partner dose 0.4 µM) belongs 107%; to `CN(C)S(=O)(=O)c1ccc2c(c1)/C(=C/c1cc3c([nH]1)CCCC3)C(=O)N2` + COc1ccc2c(c1)CCC1C2CCC2(C)C(NCCCCCCN3C(=O)C=CC3=O)CCC12 [U73122] (first compound 0.4 µM, partner dose 0.4 µM), 111%; to `CO[C@@H]1[C@H](N(C)C(=O)c2ccccc2)C[C@H]2O[C@]1(C)n1c3ccccc3c3c4c(c5c6ccccc6n2c5c31)C(=O)NC4` [Midostaurin] + Oc1nc(-c2ccc(C(F)(F)F)cc2)nc2c1CSCC2 [XAV939] (first compound 0.08 µM, partner dose 2 µM), 105%.

Values taken from the supplement of paper PMC4604168 (melanoma cell lines).
